From PubChem BioAssay AID504832 (National Center for Advancing Translational Sciences (NCATS), 2011)
Out of some 310,000 compounds screened, about 18,000 (5.8%) were called active. This list was built around the results that the source calls inconclusive (neither active nor inactive); the mix of calls is not that of the screen. Calls follow the shape of the dose curve; as a rule, active = well fitted inhibition curve with a large enough effect; inconclusive = small, poorly fitted or top-dose-only effect, or another doubt; inactive = no such curve, though single readings can be large or run the other way. Potencies of inconclusive entries are left out as doubtful fits.

Assay: Primary qHTS for delayed death inhibitors of the malarial parasite plastid, 48 hour incubation
Conditions: P. falciparum luciferase growth in erythrocytes; series mostly up to 28.7 µM
Summary of the method: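 First compound was added to culture medium, then infected red cells at 0.1% parasitemia and 2% hematocrit (final). After incubation at 37 C under 5% CO2, luciferase detection reagent was dispensed and light output recorded.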
Potency is read from the fitted curve at half-maximal effect; tags tell the direction and shape of the fitted curve.

| Structure (SMILES) | Potency |
| --- | --- |
| O=C(O)c1ccc(CNC(=O)c2ccccc2NC(=O)c2cccc([N+](=O)[O-])c2)cc1 | inconclusive [inhibitor, full curve, poor fit] |
| Cc1nn(C)cc1CNC(=O)c1cnn2c(C(F)F)cc(C3CC3)nc12 | inconclusive [inhibitor, partial curve, poor fit] |
| C/C=C1/C[N+]2(C)CCC34C(=C(C=O)[C@H]1C[C@@H]32)Nc1ccccc14 (stereo partly drawn) | inconclusive [inhibitor, partial curve, poor fit] |
| CCNc1oc(/C=C/c2ccc(OCC)cc2)nc1C#N | inconclusive [inhibitor, partial curve, poor fit] |
| C=CCn1c(-c2ccoc2)n[nH]c1=S | inactive |
| CCCN(CCC)c1ccc(CC(=O)NC(C)Cc2ccccc2)cc1 (stereo not drawn) | inconclusive [inhibitor, single point] |
| CCCCNC(=O)c1cccc(S(=O)(=O)N2CC3(C)CC2CC(C)(C)C3)c1 (stereo not drawn) | inconclusive [inhibitor, single point] |
| O=C(Cc1ccc(F)cc1)Nc1c2c(nn1-c1cccc(Cl)c1)CS(=O)C2 (stereo not drawn) | inconclusive [inhibitor, partial curve, poor fit] |
| CCC1Sc2ccc(S(=O)(=O)CCC(=O)Nc3ccc(OC(F)(F)F)cc3)cc2NC1=O (stereo not drawn) | inconclusive [inhibitor, partial curve, poor fit] |
| COc1ccc(-n2c(C(C)(C)C)csc2=Nc2c(C)n(C)n(-c3ccccc3)c2=O)cc1 | inactive |
| CCC1(C)Cc2ccccc2-c2nc3n(c(=O)c21)CCCCC3 (stereo not drawn) | inactive |
| Cc1ncn(-c2ccccc2)c1-c1ccccc1 | inconclusive [inhibitor, single point] |
| CCOC(=O)Cn1cnc2c(cnn2-c2ccc(Cl)cc2)c1=O | inconclusive [inhibitor, partial curve] |
| COc1cccc(OC)c1C(=O)NC(=S)Nc1ccc(S(=O)(=O)Nc2nccs2)cc1 | active: 13.1 µM |
| CCOC(=O)CSc1nnc([C@@H](NC(=O)OC(C)(C)C)C(C)C)o1 | inconclusive [inhibitor, partial curve, poor fit] |
| CCCC(C)C(=O)Nc1nc(C)c(-c2csc(Nc3cc(OC)ccc3OC)n2)s1 (stereo not drawn) | active: 6.57 µM |
| OCCC1CN(CCCn2cccn2)CCN1C1CCCCC1 (stereo not drawn) | inactive |
| Cc1ccccc1-c1nc(P(=O)(c2ccccc2)c2ccccc2)c(N2CCOCC2)o1 | active: 14.7 µM |
| CCOC(=O)C1=C(CC)Nc2ccccc2N=C1NC(=O)c1ccc(S(=O)(=O)N2CCCC2)cc1 | inconclusive [inhibitor, single point] |
| Cc1ccc2nc(C)cc(C(=O)N3CCCC(N4CCN(c5ccccc5C)CC4)C3)c2c1 (stereo not drawn) | active: 11.7 µM |
| CCCCN(C(=O)c1oc2ccc(OCC)cc2c1C)c1c(N)n(CCCC)c(=O)[nH]c1=O | inconclusive [inhibitor, partial curve] |
| Cc1cc(C)c(S(=O)(=O)Nc2ccc3[nH]c(=O)[nH]c3c2)c(C)c1 | inconclusive [inhibitor, single point] |
| O=C1N[C@@H](Cc2cnc[nH]2)C(=O)N2CCC[C@@H]12 | inconclusive [inhibitor, full curve, poor fit] |

| Structure (SMILES) | Potency |
| --- | --- |
| COc1ccccc1CN(C)C(=O)CSc1nnc(C2CC2)n1C1CC1 | inactive |
| CCN(CC)CCNC(=O)c1ccc(NC(=O)c2ccc(F)cc2)cc1 | inconclusive [inhibitor, single point] |
| O=C(O)CCn1cc(C=C2C(=O)NC(=O)NC2=O)c(-c2ccc(Br)cc2)n1 | inconclusive [inhibitor, partial curve] |
| C#CC[N+](CC)(CC)CC#Cc1cccc(Cl)c1 | active: 10.4 µM |
| CCC(C(=O)NC1CCCCC1)N(CC1CCCO1)C(=O)CNS(=O)(=O)c1ccc(OC)cc1 (stereo not drawn) | inconclusive [inhibitor, single point] |
| O=C(CN1CCN(Cc2ccccc2)CC1)N/N=C/c1cccs1 | inconclusive [inhibitor, full curve, poor fit] |
| CCCc1nnc(NC(=O)CCC(=O)Nc2ccc(F)cc2)s1 | inactive |
| CC1CC1C(=O)OCC(=O)NC(=O)c1ccccc1 (stereo not drawn) | inactive |
| CCN(CC)CCNC(C(=O)OCCC(C)C)c1ccccc1 (stereo not drawn) | active: 16.9 µM |
| Cc1oc(-c2ccccc2Cl)nc1CS(=O)(=O)CC(=O)NCCN1CCOCC1 | inactive |
| Clc1ccc2[nH]c3c(NCCN4CCOCC4)ncnc3c2c1 | active: 3.7 µM |
| Cc1nonc1NC(=O)CSc1nc2c(C)cccc2cc1C#N | inconclusive [inhibitor, full curve, poor fit] |
| O=C1N(c2ccccc2C(F)(F)F)O[C@@]1(c1ccccc1)C1CCCCC1 | active: 1.47 µM |
| COc1ccccc1NC1=NC(CO)(CO)CS1 | inconclusive [inhibitor, partial curve] |
| Cc1ccc(-c2ccc(S(=O)(=O)Nc3cccnc3)cc2)cc1 | inactive |
| Cc1cc(N/C(=N/S(=O)(=O)c2cc(F)ccc2F)c2ccccc2)n(-c2ccccc2)n1 | inconclusive [inhibitor, partial curve, poor fit] |
| CCn1c(=NC(=O)CCS(=O)(=O)c2ccccc2)sc2cccc(OC)c21 | inactive |
| Cc1cc(C)nc(/N=C(\N)Nc2ccc3c(c2)OCCO3)n1 | inconclusive [inhibitor, single point] |
| CNc1nc(C)c(C(=O)OCc2ccccc2)s1 | inactive |
| COc1cccc(OCC(=O)Nc2ccccc2-c2ccccc2)c1 | inconclusive [inhibitor, single point] |
| CC(C)CC(=O)Nc1c(C(=O)N2CCN(Cc3ccccc3)CC2)oc2ccccc12 | inconclusive [inhibitor, single point] |
| COc1ccc(/C=N/NC(=O)c2nc(-c3ccccc3)n(-c3ccccc3)n2)c(O)c1 | inconclusive [inhibitor, partial curve, poor fit] |
| CCCCOC(=O)C(C#N)c1nc2ccccc2nc1N1CCOCC1 (stereo not drawn) | inconclusive [inhibitor, single point] |

| Structure (SMILES) | Potency |
| --- | --- |
| COC(=O)c1ccc(-c2noc(CN3CCCCC3c3nccn3C)n2)cc1 (stereo not drawn) | inconclusive [inhibitor, full curve, poor fit] |
| CC(=O)Nc1ccc2c(c1)CCCC2 | inactive |
| Cc1ccc(-n2c(O)c(C=NCCC3=CCCCC3)c(=O)[nH]c2=O)cc1 | inconclusive [inhibitor, single point] |
| N#Cc1ccc(C[C@@H](NS(=O)(=O)c2ccc(C(=O)O)cc2)C(=O)O)cc1 | inconclusive [activator, partial curve, poor fit] |
| CCC(C(=O)NC1CCCC1)N(C(=O)Cn1nnc(-c2ccc(C)o2)n1)C(C)(C)C (stereo not drawn) | inconclusive [inhibitor, single point] |
| Cc1csc2c(N3CCN(S(=O)(=O)c4ccc(Cl)cc4)CC3)ncnc12 | inactive |
| O=C(NC1CCCC1)C(c1ccncc1)N(Cc1ccccc1)C(=O)c1ccc(-c2ccccc2)[nH]1 (stereo not drawn) | inconclusive [inhibitor, single point] |
| CCOC(C(=O)OCCC[N+](C)(CC)CC)(c1ccccc1)c1ccccc1 | active: 2.08 µM |
| Cc1ccc(-n2nnnc2SCC(=O)Nc2ccc(N3CCN(C)CC3)cc2)c(C)c1 | inconclusive [inhibitor, single point] |
| O=C(NCCCN1CCOCC1)Nc1ccc(Cc2ccc(NC(=O)NCCCN3CCOCC3)cc2)cc1 | active: 2.62 µM |
| CCOc1ccc(CCNC(=O)CN2CCN(Cc3ccccc3F)C2=O)cc1OCC | inconclusive [inhibitor, full curve, poor fit] |
| Cc1ccccc1C(=O)Oc1ccc(Cl)cc1C(=S)N1CCOCC1 | inconclusive [inhibitor, single point] |
| COc1ccc(C(=O)NCC(c2ccccc2)N2CCCC2)cc1S(=O)(=O)N1CCOCC1 (stereo not drawn) | inconclusive [inhibitor, single point] |
| CC(C)(C)N(Cc1nc(-c2ccccc2)no1)C(=O)c1ccc2c(c1)OCO2 | inconclusive [inhibitor, single point] |
| O=C(Nc1ccccc1)c1ccccc1N=Cc1cccc(O)c1 | inconclusive [inhibitor, partial curve, poor fit] |
| O=c1c2c(-c3cccs3)csc2ncn1/N=C/c1ccc(OC(F)F)cc1 | inconclusive [inhibitor, partial curve, poor fit] |
| Cc1nc(-c2ccc(F)cc2)c(CC(=O)N(C)CC(=O)Nc2ccccc2Br)s1 | active: 13.1 µM |
| CCOc1ccccc1NC(=O)NC1Cc2ccccc2C1 | inconclusive [inhibitor, partial curve, poor fit] |
| Cc1ccc(-n2c(-c3cc(-c4ccco4)[nH]n3)n[nH]c2=S)c(Br)c1 | inconclusive [inhibitor, single point] |
| CCOC(=O)CN(C(=O)CSc1nnc(-c2ccncc2)n1CCCOC)c1ccccc1 | inconclusive [inhibitor, single point] |
| O=S(=O)(Oc1ccc(Cl)cc1)c1cccc2cccnc12 | inactive |
| CC(=O)Nc1sc(-c2ccccc2)nc1-c1ccccc1 | inactive |
